This note sets out measurements from paper PMC6919601, “Identification of Plasmodium dipeptidyl aminopeptidase allosteric inhibitors by high throughput screening” (PLoS ONE, 2019).

In all, about 110,000 compounds went through this assay and about 230 (0.21%) showed an effect of 50% or more. Some of the results follow.
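Further: 30 min substrate incubation versus DMSO and 10 µM JCP410 controls.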

For this assay, the target named is DPAP1 (Plasmodium falciparum, UniProt Q8IIJ9). The assay can be described thus: primary screen, percent inhibition; read by cleavage of a fluorogenic dipeptide substrate; higher = more effect of the substance. The arrangement: species or system P. falciparum D10 trophozoite lysates; single well.
DPAP1, sequence (Q8IIJ9 whole entry, looked up): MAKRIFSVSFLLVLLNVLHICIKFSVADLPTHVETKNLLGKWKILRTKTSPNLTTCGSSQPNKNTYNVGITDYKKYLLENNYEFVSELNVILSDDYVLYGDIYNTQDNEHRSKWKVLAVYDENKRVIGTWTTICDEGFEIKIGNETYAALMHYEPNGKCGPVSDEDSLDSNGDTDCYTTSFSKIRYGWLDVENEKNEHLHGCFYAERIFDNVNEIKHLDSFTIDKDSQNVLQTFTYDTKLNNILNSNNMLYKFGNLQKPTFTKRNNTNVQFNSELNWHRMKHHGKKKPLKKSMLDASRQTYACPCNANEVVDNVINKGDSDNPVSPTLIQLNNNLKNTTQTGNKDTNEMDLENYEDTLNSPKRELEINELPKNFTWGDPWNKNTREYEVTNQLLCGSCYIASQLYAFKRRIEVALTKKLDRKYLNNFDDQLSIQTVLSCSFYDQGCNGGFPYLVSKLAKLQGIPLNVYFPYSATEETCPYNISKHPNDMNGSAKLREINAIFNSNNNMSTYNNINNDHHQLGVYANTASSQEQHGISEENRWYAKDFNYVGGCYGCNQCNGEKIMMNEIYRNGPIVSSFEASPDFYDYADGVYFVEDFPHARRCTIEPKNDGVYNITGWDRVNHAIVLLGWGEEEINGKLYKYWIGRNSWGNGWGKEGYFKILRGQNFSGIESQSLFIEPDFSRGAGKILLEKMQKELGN
With `O=C(CN1CC(c2ccccc2)CC1=O)Nc1ccc2ccccc2c1` (stereo not shown), the “% Inhibition @ 10 uM” value was determined as 2.44%.
The value for `CCOC(=O)c1c(C)c(-c2ccccc2)n(CC(=O)NC(C)(C)C)c1C` was -1.66%; that for `SC1=NC2=C(CCc3ccccc32)C(c2ccccc2Cl)N1` (stereo not shown) was -4.51%; that for `Cc1oc2c(c(C)cc3oc(=O)c(CC(=O)O)c(C)c32)c1-c1ccccc1` was 0.558%.
Consider `CCN(CC)CCNC(=O)NC1CCCCC1`, for which the “% Inhibition @ 10 uM” value is 1.7%.
The value for `O=C(/C=C/c1ccccc1Cl)Nc1ccccc1C(F)(F)F` was 0.135%.
The value for `CCCn1nnc(NC(=O)c2cccnc2Cl)n1` was -4.35%; that for `Cc1ccc(S(=O)(=O)N(CC(=O)Nc2ccc(C(N)=O)cc2)c2cccc(C)c2)cc1` was 10.6%; that for `Cc1ccc(OCC(=O)Nc2cccc(Cl)c2)c(C)c1` was 5.08%.
In the case of `COc1ccccc1N1CCN(S(=O)(=O)c2ccccc2)CC1` it was -1.98%.
As to `Cc1cc(C)c2c(n1)SCC(=O)N2CC(=O)NC(C)c1ccc2c(c1)OCCO2` (stereo not shown), the “% Inhibition @ 10 uM” value was -4.15%.
Consider `CCN(CC)C(=O)Cn1cc(SCC(=O)N(C(C)C)C(C)C)c2ccccc21`, for which the “% Inhibition @ 10 uM” value is given as -3.73%.
Take `CCOC(=O)c1cc(C)sc1NC(=O)c1ccc(C)o1`: the “% Inhibition @ 10 uM” value is -5.81%.
In the case of `CCOC(=O)c1c(NC(=O)c2cccc([N+](=O)[O-])c2)sc(C)c1C` it was 13.5%; in that of `O=c1oc2c(O)cccc2cc1-c1nc(-c2ccccc2)no1`, 4.23%.
In the case of `Cc1sc2c(c1C)CSC(C(=O)NCc1cccnc1)=C2` it was -1.95%.
`Cc1ccn2c(-c3csc(Nc4ccc(N(C)C)cc4)n3)c(C)nc2c1`: the “% Inhibition @ 10 uM” value came to 0.968%.
The value for `COC(=O)c1ccc(Cl)c(-c2ccc(C(=O)N[C@@H](C[C@H](C)c3ccccc3)C(=O)NC3(C#N)CCOCC3)cc2)c1` was -3.14%; that for `CN(C)CCCN1C(=O)c2cccc3cccc(c23)C1=O` was -2.15%; that for `Fc1ccc2[nH]c(SCc3cccnc3)nc2c1` was 7.4%.
In the case of `CC(=O)N1CCN(CCN2C(=O)c3cccc4cccc(c34)C2=O)CC1` it was -2.74%.
In the case of `COc1ccc(C2C(C#N)=C(N)OC3=C2C(=O)CC(C)(C)C3)cc1CSc1ccccn1` (stereo not shown) it was 2.76%.
Take `CCc1nn(CC(=O)NCc2cccc(OC)c2)c(=O)c2cc3occc3n12`: the “% Inhibition @ 10 uM” value is on record as 1.38%.
The value for `CCN(CC)C(=O)Cn1ncc2c3ccccc3n(Cc3ccccc3)c2c1=O` was 1.8%; that for `CCOc1cc(C2CC(=O)Nc3c2c(=O)nc(SCc2cccc(C)c2)n3C)ccc1O` (stereo not shown) was -2.88%; that for `CN1CCC(N(C)C2CCSC2)CC1` (stereo not shown) was -1.5%.
The value for `O=C(O)c1cccc(N2C(=O)C3C4C=CC(C5CC45)C3C2=O)c1` (stereo not shown) was 1.96%; that for `Cc1cc(F)ccc1NC(=O)c1c(Br)c(C)nn1C` was 4.32%; that for `O=C(NCc1ccccn1)c1ccc(Cl)s1` was -0.687%.
In the case of `CCc1ccc(NC(=O)COc2ccc(Cl)cc2)cc1` it was -1.22%; in that of `Cc1cc(NC(=O)c2ccc(C(=O)Nc3cc(C)on3)cc2)no1`, -0.425%; in that of `O=C(O)c1ccccc1C(=O)NCc1ccccc1Cl`, -4.06%.
In the case of `CCNC(=O)CC1SC(Nc2ccc(C)cc2)=NC1=O` (stereo not shown), the “% Inhibition @ 10 uM” value is listed as -0.185%.
In the case of `Cc1ccccc1NC(=O)c1c(C(=O)O)cccc1[N+](=O)[O-]` it was -6.83%.
Take `OCCN1CCN(CC2CCCCC2)CC1`: the “% Inhibition @ 10 uM” value is recorded as -1.78%.
Turning to `Cc1ccc(NC(=O)c2ccc(S(=O)(=O)N3CCCCC3C)cc2)cc1Cl` (stereo not shown), the “% Inhibition @ 10 uM” value was determined as 5.39%.
The value for `COc1ccc(-c2nnc(SCC(=O)NC(C)(C)C)nc2-c2ccc(OC)cc2)cc1` was -3.44%.
In the case of `COc1ccc(C(=O)Nc2ccc(S(=O)(=O)N3CCC(C)CC3)cc2)cc1` it was 3.8%; in that of `Cc1ccc(-c2cn3c(n2)sc2cc(C(=O)N4CCC(C)CC4)ccc23)cc1`, 18.2%; in that of `O=C(O)CCCC(=O)N1CCN(c2ccccc2)CC1`, -4.28%.
In the case of `CCCNC(=O)C1CCN(S(=O)(=O)c2ccccc2)CC1` it was 0.992%; in that of `CCCCn1nc(-c2ccccc2)c(-c2ccccc2)c(C(=O)OC)c1=O`, 1.91%; in that of `COc1cccc(OC)c1C(=O)N1CCCCC1C` (stereo not shown), -1.28%.
Regarding `CCc1nnc(SCC(=O)NCCc2ccccc2)c2cc3oc(C)cc3n12`, the “% Inhibition @ 10 uM” value is -5.93%.
On to `CS(=O)(=O)N1CCC(C(=O)NCCC2=CCCCC2)CC1`, for which the “% Inhibition @ 10 uM” value was -1.34%.
In the case of `CCCCOC(=O)c1ccc(NS(C)(=O)=O)cc1` it was 3.01%; in that of `COCCNS(=O)(=O)c1c(C)cc(C)cc1C`, -3.44%.
In the case of `O=C(NC1CCCCCC1)c1ccc(C(=O)NC2CCCCCC2)cc1` it was 0.273%.
The value for `CCCc1noc2c1C(=O)CC(C)(C)C2` was -2.63%; that for `Cc1sc(NC(=O)c2ccc(F)cc2)c(CN2CCCCC2)c1C` was 2.64%.
Turning to `Cc1ccc(-n2nc3c(=O)n(CCCC(=O)NCc4ccc(OC(C)C)cc4)nc(C)c3c2C)cc1`, the “% Inhibition @ 10 uM” value is recorded as -1.03%.
In the case of `N#C/C(=C\c1ccc([N+](=O)[O-])cc1)c1nc(-c2ccc(F)cc2)cs1` it was 0.912%; in that of `CN(Cc1ccccc1)Cc1csc2c1CCCC2`, 1.22%.
In the case of `CCOC(=O)Nc1ccc(C)cn1` it was 4.35%; in that of `O=C(NCc1ccco1)C1CCCN(c2nnc(-n3cccc3)s2)C1` (stereo not shown), -5.77%; in that of `O=C(NC1CCCC1)c1cnn2c1NC(c1ccc(Br)cc1)CC2C(F)(F)F` (stereo not shown), -0.171%.
As for `COCCCNC(=O)C1CCN(C(=O)c2c(C)nn(-c3ccccc3)c2-n2cccc2)CC1`, the “% Inhibition @ 10 uM” value is on record as 3.4%.
Regarding `O=C(O)C1CC=CCC1C(=O)Nc1cccc(Cl)c1Cl` (stereo not shown), the “% Inhibition @ 10 uM” value was 3.92%.
In the case of `c1ccc(-c2nc3ccncc3[nH]2)cc1` it was -0.902%; in that of `COc1ccc(CC(=O)NCCc2c(C)[nH]c3ccccc23)cc1`, 4.11%; in that of `CC(C)(C)NCCC(=O)C1=CCCCC1`, -0.197%.
The value for `COc1ccc(CN2CCN(Cc3ccccc3F)CC2)c(OC)c1` was -3.37%; that for `COc1ccc(NC(=O)c2cccc(S(=O)(=O)Nc3cccc([N+](=O)[O-])c3)c2)cc1` was 13.2%.
The value for `O=C(/C=C/c1ccccc1)N1CCN(Cc2ccc3c(c2)OCO3)CC1` was 2.41%; that for `O=C(NCCCN1CCOCC1)c1ccc(CS(=O)c2ccccc2Cl)o1` (stereo not shown) was -0.434%.
For `C=C(C)CN(CC)Cc1ccc(O)cc1`, the “% Inhibition @ 10 uM” value is given as 1.62%.
The value for `COc1ccc(C2CC(=O)C(=Cc3c[nH]c4ccccc34)C(=O)C2)cc1` (stereo not shown) was 0.685%.
The value for `O=C(c1ccc2snnc2c1)N1CCN(c2ccccn2)CC1` was -3.52%; that for `Cc1cccc(C(=O)Nc2ccc(CC#N)cc2)c1` was 5.15%.
`O=C(NCCC1=CCCCC1)c1cc(-c2ccncc2)nc2ccccc12`: the “% Inhibition @ 10 uM” value is listed as -0.519%.
The value for `CC1CCc2c(sc(NC(=O)c3ccccc3Cl)c2C(N)=O)C1` (stereo not shown) was -10%.
The value for `Cc1ccc2c(CC(=O)Nc3sc4c(c3C(=O)NCc3cccnc3)CCC4)coc2c1C` was 8.59%; that for `Cc1ccccc1OCCSc1nc(N(C)C)nc(N(C)C)n1` was -5.45%.
Consider `CC(=O)c1c(C)nc2c(c1-c1ccc(C)cc1)C(=O)c1ccccc1-2`, for which the “% Inhibition @ 10 uM” value is 0.795%.
The value for `CCOc1ccccc1C(=O)Nc1cc(C)ccc1C` was -9.68%.
On to `CCc1ccc(NC(=O)C(C(C)C)N2C(=O)c3ccccc3C2=O)cc1` (stereo not shown), for which the “% Inhibition @ 10 uM” value is on record as 1.88%.
The value for `Cc1cccc(Nc2nc(-c3sc(N)nc3C)cs2)c1` was 2.7%; that for `CC(=O)NCCOc1cccc2cccnc12` was -6.84%.
The value for `Cc1ccc(-n2ncc3c(N(CCO)Cc4ccccc4)ncnc32)cc1Cl` was 0.0904%; that for `O=C(Nc1nc2c(Cl)cccc2s1)C1CCCC1` was 4.64%.
On to `Cc1nn(C(C)C(=O)N2CCCCC2)c(=O)c2c1sc1ccccc12` (stereo not shown), for which the “% Inhibition @ 10 uM” value is given as -1.6%.
In the case of `CCCCCCSC1=C(C#N)C(c2ccc(F)cc2)CC(=O)N1` (stereo not shown) it was 0.121%.
In the case of `CC(=O)N1N=C2CC(C)(C)OCC2C1c1ccccc1` (stereo not shown) it was -4.12%.
In the case of `CCOc1cc(-c2cc(C)nc(N)c2C#N)ccc1O` it was -6.74%; in that of `O=C(Nc1nnc(C2CCCCC2)s1)c1ccccc1Br`, 1.13%.
With `Cc1ccc(Cn2c(C(=O)O)c(CNCCc3ccc(Cl)cc3)c3ccc(C)cc32)cc1`, the “% Inhibition @ 10 uM” value is 8.58%.
In the case of `COc1ccc(C2=NOC(C(=O)NCCc3ccccc3)C2)cc1` (stereo not shown) it was -5.25%; in that of `COc1cccc(CNC(=O)C2CCCN(S(=O)(=O)c3c(C)nc(O)nc3O)C2)c1` (stereo not shown), 1.16%; in that of `COc1ccccc1/C=C1/SC(Nc2cccc(C)c2)=NC1=O`, 9.82%.
Regarding `Cc1nn(C)c2c1c(-c1ccccc1)cc(=O)n2Cc1cccc(C(F)(F)F)c1`, the “% Inhibition @ 10 uM” value is -2.41%.
Consider `COC(=O)c1c(N)sc2c1CCCCC2`, for which the “% Inhibition @ 10 uM” value amounted to 6.49%.
The value for `CC1CCCCN1CCNC(=O)Cn1ncc2c(=O)oc3ccccc3c21` (stereo not shown) was 2.85%.
As to `CC(C)C[C@H](NC(=O)c1ccc(N2CCN(C)CC2)cc1)C(=O)NCCN(CC(C)C)CC(C)C`, the “% Inhibition @ 10 uM” value is listed as -9.15%.
The value for `NC(=O)c1nn2c(C(F)(F)F)cc(-c3ccco3)nc2c1Cl` was -1.2%; that for `CCOC(=O)N1CCN(C(=O)c2cc(OC)cc(OC)c2)CC1` was -6.44%.
In the case of `Nc1ccc(Cc2ccc(N)c(C(=O)O)c2)cc1C(=O)O` it was 17.4%; in that of `Cc1cc2n(n1)c1cc(C)nn1c1cc(C)nn21`, -0.744%; in that of `CC(C)N(Cc1nc(-c2ccccc2)no1)C(=O)C12CC3CC(CC(C3)C1)C2`, -0.352%.
In the case of `Cc1nn(C)c2nc(C(=O)NCc3ccc(F)cc3)cc(C3CC3)c12` it was -0.92%; in that of `Cc1nc2ccc(S(=O)(=O)N(C)CC(=O)NC3CCN(Cc4ccccc4)CC3)cc2s1`, 4.33%; in that of `Clc1cccc(-c2nnc(CN3CCC(Cc4ccccc4)CC3)o2)c1`, -2.23%.
Regarding `COc1cc(C)c2c(=O)c(-c3nc(C)cs3)coc2c1`, the “% Inhibition @ 10 uM” value was -3.45%.
With `COc1ccc(-c2[nH]nc3c2C(c2cc(OC)c(OC)c(OC)c2)CC(=O)O3)cc1` (stereo not shown), the “% Inhibition @ 10 uM” value amounted to 9.03%.
